# In the RNAGym collection of RNA variant scans (doi:10.1093/nar/gkz1192):
# Read counts are not given, so values of variants with three or more changes are uncertain.
# B1: CPEB3 Ribozyme (parent)
# chain: UAACAGGGGGCCACAGCAGAAGCGUUCACGUCGCAGCCCCUGUCAGAUUCUGGUGAAUCUGCGAAUUCUGCUGUAUAUCUC
# Variants of: B1
# Test: self-cleavage, relative activity (ratio to wild type); higher = more cleavage; in vitro, sequencing
# Summary of the method: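 Relative activity compares each variant's cleaved/total read fraction with that of the unmutated ribozyme. To get these fractions, barcoded CPEB3 ribozyme libraries from rounds of error-prone PCR were transcribed with T7 RNA polymerase for 5 hours at 37°C and then given 15 min of DNase I treatment before EDTA was added. The RNAs were reverse transcribed with template switching and sequenced on Illumina, and DNA sequencing linked barcodes to variants. A minimum of 5 reads applied, and three batches were averaged.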
row,Variant,self-cleavage
1,U26C A56U U74C,0.49
2,U26C C39G A64G U72C,0.07
3,U26A U72G U78C,0.73
4,U26C A28C U31C A64G U72C,0.08
5,U26C A35U U48C A56U A64U,0.14
6,U26C C29G C39U,0.16
7,U26C A35U U58A,0.17
8,U26C A28G A65C,0.1
9,U26C A35C U43C U58C A64U,0.34
10,U26C A28U U60C U72C,0.11
11,U26C A35G U49C U54C U69A C71U,0.11
12,U26C C32U A47G U66C,0.11
13,U26C A35G C37A U41C U60A U67A U80C,0.16
14,U26C A45U U69C G70U,0.24
15,U26C C32A A45U U49C A65G,0.11
16,U26C A28U U66C,0.07
17,U26C A35U U43A A45G A47G A64G,0.2
18,U26C C32A U60A,0.4
19,U26C A45U A77C,0.22
20,U26C A35U C44U,0.17
21,U26C A35G U43C U72C A77G,1.19
22,U26C A35U U72G A77U,0.14
23,U26C A35G U41C A64G A77G,0.79
24,U26C A65C U69C,0.15

row,Variant,self-cleavage
1,U26C C34U U43C A64U,0.3
2,U26C A35U U49C U69A,0.09
3,U26C A28C U43C,0.24
4,U26C A35G A75U,1.14
5,U26C A45G U60A U72C,0.42
6,U26C A35G G55A U74C,1.14
7,U26C A28C A35G,0.25
8,U26C C29U U67C,0.14
9,U26C C32A G36A U72A,0.04
10,U26C A35U U43A A56C A75G,0.07
11,U26C C38U U49C C50U U51C U60C U78C,0.05
12,U26C C34U A65G,0.19
13,U26C A28G G52C,0.43
14,U26C A56C G73A,0.46
15,U26C G33A U41C A45G,0.21
16,U26C A28U A47G,0.15
17,U26C A65G U74A,0.38
18,U26C C40U A45G,0.14
19,U26C C62U U72C U76A,0.12
20,U26C C59U U78C,0.45
21,U26C A35U U48C U72C,0.07
22,U26C C27U A45G,0.42
23,U26C A45U U54C A56G U78C,0.34
24,U26C C62U U72C,0.21

row,Variant,self-cleavage
1,U26C A35U U41C U43A A45G,0.09
2,U26C A47U U58A,0.52
3,U26C A28U U74C,0.29
4,U26C A35G U48C A75G,0.94
5,U26C C40U U51A,0.35
6,U26C A45C U49A U58C,0.19
7,U26C A57G U72A U78A,0.2
8,U26C C34U U54G U66C,0.06
9,U26C A35U U49C C50A U74C,0.38
10,U26C A45G U51C U54C A56G,0.24
11,U26C A45G G73C,0.61
12,U26C C27G U31C U76C,0.23
13,U26C A35G A45G U72C,0.77
14,U26C A35U U41A,0.33
15,U26C A45C U72A,0.29
16,U26C G30U U60C A64G,0.31
17,U26C A35G C40U,0.67
18,U26C A28G G30A A77U,0.2
19,U26C A47U A65G U78C,0.14
20,U26C A45G U49C U60C,0.31
21,U26C A28U U49C G55A,0.06
22,U26C A64G A65G,0.31
23,U26C A45G U51A A57G,0.26
24,U26C A28G U67C U72C,0.34

row,Variant,self-cleavage
1,U26C A45U U60A U72C,0.5
2,U26C A56G A77U,0.26
3,U26C A56G A77G,0.25
4,U26C A45U U60C,0.09
5,U26C A28U A45G G63U,0.13
6,U26C C27A U43C U49C,0.17
7,U26C G30U U43C U67G,0.06
8,U26C C27G U69A,0.21
9,U26C A28C U48C U54C U67C A77G,0.12
10,U26C C40U G53A,0.26
11,U26A U74C U78A,1.26
12,U26C C29U U48C U54A,0.09
13,U26C A35G U48C,0.91
14,U26C C38A U66C,0.29
15,U26C A47C U54C,0.21
16,U26C A28G A35G U41A G55U A65U,0.11
17,U26C A56G A64U U66C,0.14
18,U26C G33A A35U U43A U80C,0.13
19,U26C G30A U69C,0.2
20,U26C A35U A47G U48C C59U,0.15
21,U26C A45U U72C,0.15
22,U26C A28U G33A U60G C68U,0.19
23,U26C A28U A45G A64U U74C,0.08
24,U26C A28G U31C G42A A47G A56G,0.12

row,Variant,self-cleavage
1,U26C C38U U58G U69C U80C,0.09
2,U26C C40U U43A U51C A64G,0.1
3,U26C A28G U74C,0.6
4,U26C A56G U60G U72C C79A,0.12
5,U26C A35C U48C A65U,0.08
6,U26C C32A A64G U67C,0.34
7,U26C A47G U49C U69A,0.13
8,U26C A45U U51A A57C,0.05
9,U26C A35U U78C,0.15
10,U26C A45G U48C U49A U72C,0.11
11,U26C A28U C34A A47G,0.12
12,U26C G30A U31A A47C,0.23
13,U26C A47G U60C U76C,0.14
14,U26C C29U U43C U48C U69A U80C,0.05
15,U26C C40U U69G,0.15
16,U26C C32U U54A U58C A64G U69C,0.04
17,U26C C29G C40G U48C U69A,0.05
18,U26C A28U G33U U74C,0.25
19,U26C C32A A45G,0.22
20,U26C A28G U51A U72C,0.14
21,U26C A56G G70C,0.12
22,U26C C32A G70A U72C,0.16
23,U26C A35G A45C,0.4
24,U26C A56G U72C,0.42

row,Variant,self-cleavage
1,U26C A35G U43C U60C A65G U67C U72A,0.24
2,U26A U72C U78C,0.99
3,U26C C40U U51G U54C A56G U80C,0.18
4,U26C A45U U51C,0.28
5,U26C G30A U41A U43C U58A A64U U80C,0.11
6,U26C C29G C39U A57U,0.12
7,U26C A35G U43C U78C,1.28
8,U26A U67A U72G U76C U80C,0.21
9,U26C A64G U72C,0.36
10,U26C A28G A35G U49C,0.18
11,U26C C34G U67C U80C,0.08
12,U26C A28G C29A A35G U60C A64G,0.1
13,U26C A65U U72A,0.1
14,U26C A56U C62U A65G,0.12
15,U26C A28G G53U U69C,0.13
16,U26C A45C A56G,0.07
17,U26C A28G A35G A45G U54A U72C C79U,0.32
18,U26A U76A U80C,1.06
19,U26C A35C A45C,0.07
20,U26C A35C A45G,0.15
21,U26C A28G A56U,0
22,U26C A35G U41A U74C,0.11
23,U26C G30A C34G,0.09
24,U26C C40U U58A,0.22

row,Variant,self-cleavage
1,U26C A28U A65G,0.15
2,U26C A28U U49C U80C,0.21
3,U26C C29U C38A U49A,0.04
4,U26C A28G U43A,0.3
5,U26C A57U A65G U66A C71A,0.05
6,U26C A57G U67A U74A,0.47
7,U26C A56U U69C G73A,0.26
8,U26C A45G A65G,0.16
9,U26C A47G U51C U76C,0.17
10,U26C A28U C32U,0.13
11,U26C A45U A65U U74C,0.1
12,U26A U72A U78A,0.86
13,U26C G30U A35U U67G U72G,0.08
14,U26C A56G U60G,0.24
15,U26C A56G U60C,0.26
16,U26C A35G G36A,0.31
17,U26C A28U U43C A64G U66C U69C,0.26
18,U26C A28C A35G U58C,0.17
19,U26C C40U A47G,0.18
20,U26C A45G U58A,0.17
21,U26C C27A A57G U60C A65G U67A,0.05
22,U26C A77U U80C,0.56
23,U26C A35U A45C U54C A65G A77G,0.03
